# Results taken from the supplement of paper PMC8728848.
# The list shows a part of the results.
# Tests used:
# Assay in all cases: glycan array binding signal (z-score within array); higher = stronger binding
# Conditions in all cases: glycan notation: IUPAC condensed, linker removed
# [1] = target: GlcNAc(b1-3)Gal(b1-4)GlcNAc(b1-3)Gal(b1-4)GlcNAc(b1-3)Gal(b1-4)GlcNAc(b1-3)Gal(b1-4)GlcNAc(b1-2)[GlcNAc(b1-3)Gal(b1-4)GlcNAc(b1-3)Gal(b1-4)GlcNAc(b1-3)Gal(b1-4)GlcNAc(b1-3)Gal(b1-4)GlcNAc(b1-6)]Man(a1-6)[GlcNAc(b1-3)Gal(b1-4)GlcNAc(b1-3)Gal(b1-4)GlcNAc(b1-3)Gal(b1-4)GlcNAc(b1-3)Gal(b1-4)GlcNAc(b1-2)Man(a1-3)]Man(b1-4)GlcNAc(b1-4)[Fuc(a1-6)]GlcNAc
# Outline: (§1)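 Arrays were curated from the Consortium for Functional Glycomics database, 3228 in total, and kept only where the protein sequence was available. Binding is expressed as a within-array Z-score. This score was averaged across arrays of the same protein sequence at different concentrations or buffers and across linkers, and negative values can be read as non-binding.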
# [2] = target: GlcNAc(b1-3)Gal(b1-4)GlcNAc(b1-3)Gal(b1-4)GlcNAc(b1-3)GalNAc
# Outline: as §1
# [3] = target: GlcNAc(b1-3)Gal(b1-4)GlcNAc(b1-3)GalNAc
# Outline: as §1
# [4] = target: GlcNAc(b1-3)Gal(b1-4)GlcNAc(b1-3)[GlcNAc(b1-3)Gal(b1-4)GlcNAc(b1-3)]GalNAc
# Outline: as §1
# [5] = target: GlcNAc(b1-3)Gal(b1-4)GlcNAc(b1-6)[Gal(b1-3)]GalNAc
# Outline: as §1
# [6] = target: GlcNAc(b1-3)Gal(b1-4)GlcNAc(b1-6)[GlcNAc(b1-3)Gal(b1-3)]GalNAc
# Outline: as §1
# [7] = target: GlcNAc(b1-3)Gal(b1-4)GlcNAc(b1-6)[GlcNAc(b1-3)]Gal(b1-4)GlcNAc
# Outline: as §1
# GlcNAc(b1-3)GalNAc = target: GlcNAc(b1-3)GalNAc
# Outline: as §1
# GlcNAc(b1-3)Man = target: GlcNAc(b1-3)Man
# Outline: as §1
# [8] = target: GlcNAc(b1-3)[GlcNAc(b1-4)][GlcNAc(b1-6)]GlcNAc
# Outline: as §1
# [9] = target: GlcNAc(b1-3)[GlcNAc(b1-6)]Gal(b1-4)GlcNAc
# Outline: as §1
# [10] = target: GlcNAc(b1-3)[GlcNAc(b1-6)]GalNAc
# Outline: as §1
# [11] = target: GlcNAc(b1-4)Gal(b1-4)GlcNAc
# Outline: as §1
# GlcNAc(b1-4)GlcNAc = target: GlcNAc(b1-4)GlcNAc
# Outline: as §1
# [12] = target: GlcNAc(b1-4)GlcNAc(b1-4)GlcNAc
# Outline: as §1
# [13] = target: GlcNAc(b1-4)GlcNAc(b1-4)GlcNAc(b1-4)GlcNAc(b1-4)GlcNAc
# Outline: as §1
# [14] = target: GlcNAc(b1-4)GlcNAc(b1-4)GlcNAc(b1-4)GlcNAc(b1-4)GlcNAc(b1-4)GlcNAc
# Outline: as §1
# [15] = target: GlcNAc(b1-4)[GlcNAc(b1-6)]GalNAc
# Outline: as §1
# [16] = target: GlcNAc(b1-6)Gal(b1-4)GlcNAc
# Outline: as §1
# GlcNAc(b1-6)GalNAc = target: GlcNAc(b1-6)GalNAc
# Outline: as §1
# [17] = target: GlcNAc6S(b1-3)Gal(b1-4)GlcNAc
# Outline: as §1
# Kdn(a2-3)Gal(b1-3)GalNAc = target: Kdn(a2-3)Gal(b1-3)GalNAc
# Outline: as §1
# Kdn(a2-3)Gal(b1-3)GlcNAc = target: Kdn(a2-3)Gal(b1-3)GlcNAc
# Outline: as §1
# Kdn(a2-3)Gal(b1-4)Glc = target: Kdn(a2-3)Gal(b1-4)Glc
# Outline: as §1
# Kdn(a2-3)Gal(b1-4)GlcNAc = target: Kdn(a2-3)Gal(b1-4)GlcNAc
# Outline: as §1
# [18] = target: Kdn(a2-3)Gal(b1-4)[Fuc(a1-3)]GlcNAc
# Outline: as §1
# Kdn(a2-6)Gal(b1-4)GlcNAc = target: Kdn(a2-6)Gal(b1-4)GlcNAc
# Outline: as §1
# [19] = target: Man(a1-2)Man(a1-2)Man(a1-3)Man
# Outline: as §1
# [20] = target: Man(a1-2)Man(a1-2)Man(a1-6)[Man(a1-3)]Man
# Outline: as §1
# Man(a1-2)Man(a1-3)Man = target: Man(a1-2)Man(a1-3)Man
# Outline: as §1
# [21] = target: Man(a1-2)Man(a1-3)[Man(a1-2)Man(a1-6)]Man
# Outline: as §1
# [22] = target: Man(a1-2)Man(a1-3)[Man(a1-2)Man(a1-6)]Man(a1-6)[Man(a1-2)Man(a1-2)Man(a1-3)]Man
# Outline: as §1
# [23] = target: Man(a1-2)Man(a1-3)[Man(a1-2)Man(a1-6)]Man(a1-6)[Man(a1-2)Man(a1-2)Man(a1-3)]Man(b1-4)GlcNAc(b1-4)GlcNAc
# Outline: as §1
# [24] = target: Man(a1-2)Man(a1-3)[Man(a1-6)]Man(a1-6)[Man(a1-2)Man(a1-3)]Man(b1-4)GlcNAc(b1-4)GlcNAc
# Outline: as §1
# [25] = target: Man(a1-2)Man(a1-6)[Man(a1-3)]Man(a1-6)[Man(a1-2)Man(a1-2)Man(a1-3)]Man
# Outline: as §1
# [26] = target: Man(a1-2)Man(a1-6)[Man(a1-3)]Man(a1-6)[Man(a1-2)Man(a1-2)Man(a1-3)]Man(b1-4)GlcNAc(b1-4)GlcNAc
# Outline: as §1
# Man(a1-3)[Man(a1-6)]Man = target: Man(a1-3)[Man(a1-6)]Man
# Outline: as §1
# [27] = target: Man(a1-3)[Man(a1-6)]Man(a1-6)[Man(a1-2)Man(a1-3)]Man(b1-4)GlcNAc(b1-4)GlcNAc
# Outline: as §1
# [28] = target: Man(a1-3)[Man(a1-6)]Man(a1-6)[Man(a1-3)]Man
# Outline: as §1
# [29] = target: Man(a1-3)[Man(a1-6)]Man(a1-6)[Man(a1-3)]Man(b1-4)GlcNAc(b1-4)GlcNAc
# Outline: as §1
# [30] = target: Man(a1-3)[Man(a1-6)]Man(b1-4)GlcNAc(b1-4)GlcNAc
# Outline: as §1
# [31] = target: Man(a1-3)[Man(a1-6)]Man(b1-4)GlcNAc(b1-4)[Fuc(a1-6)]GlcNAc
# Outline: as §1
# Man(a1-6)Man = target: Man(a1-6)Man
# Outline: as §1
# Man(b1-4)GlcNAc = target: Man(b1-4)GlcNAc
# Outline: as §1
# MurNAc(b1-4)GlcNAc = target: MurNAc(b1-4)GlcNAc
# Outline: as §1
binder,measurement,setting,value
MpAFP NterminalRI GFP (Marinomonas primoryensis) (protein) MSDNQFPFATLGNAIGFITKLDGSVTVQSIDGQERVLKLGDPIFFGETVLTGGSGSVTIAFVDGTDVVIGGDSIVEMTDEIYNTGDNEDLVADSSSEIDALQNAILAGDDPTLIQDAPAAGNTLADQQRVDVSIERNDNSAQAGFGVDTQSSLPTYGYDTDNGNGGQATEREYSAPSLSRTLNQSPLLEHHHHHH,glycan array binding signal (z-score),[1],0.32
same,glycan array binding signal (z-score),[2],-0.344
same,glycan array binding signal (z-score),[3],-0.426
same,glycan array binding signal (z-score),[4],-0.194
same,glycan array binding signal (z-score),[5],-0.33
same,glycan array binding signal (z-score),[6],-0.192
same,glycan array binding signal (z-score),[7],-0.39
same,glycan array binding signal (z-score),GlcNAc(b1-3)GalNAc,-0.21
same,glycan array binding signal (z-score),GlcNAc(b1-3)Man,2.02
same,glycan array binding signal (z-score),[8],-0.51
same,glycan array binding signal (z-score),[9],-0.441
same,glycan array binding signal (z-score),[10],-0.324
same,glycan array binding signal (z-score),[11],1.43
same,glycan array binding signal (z-score),GlcNAc(b1-4)GlcNAc,4.84
same,glycan array binding signal (z-score),[12],-0.497
same,glycan array binding signal (z-score),[13],-0.347
same,glycan array binding signal (z-score),[14],-0.337
same,glycan array binding signal (z-score),[15],-0.43
same,glycan array binding signal (z-score),[16],0.165
same,glycan array binding signal (z-score),GlcNAc(b1-6)GalNAc,-0.604
same,glycan array binding signal (z-score),[17],0.005
same,glycan array binding signal (z-score),Kdn(a2-3)Gal(b1-3)GalNAc,-0.444
same,glycan array binding signal (z-score),Kdn(a2-3)Gal(b1-3)GlcNAc,-0.557
same,glycan array binding signal (z-score),Kdn(a2-3)Gal(b1-4)Glc,-0.25
same,glycan array binding signal (z-score),Kdn(a2-3)Gal(b1-4)GlcNAc,-0.389
same,glycan array binding signal (z-score),[18],-0.182
same,glycan array binding signal (z-score),Kdn(a2-6)Gal(b1-4)GlcNAc,-0.455
same,glycan array binding signal (z-score),[19],-0.451
same,glycan array binding signal (z-score),[20],-0.386
same,glycan array binding signal (z-score),Man(a1-2)Man(a1-3)Man,-0.312
same,glycan array binding signal (z-score),[21],2.93
same,glycan array binding signal (z-score),[22],-0.398
same,glycan array binding signal (z-score),[23],0.014
same,glycan array binding signal (z-score),[24],-0.185
same,glycan array binding signal (z-score),[25],-0.447
same,glycan array binding signal (z-score),[26],-0.484
same,glycan array binding signal (z-score),Man(a1-3)[Man(a1-6)]Man,0.278
same,glycan array binding signal (z-score),[27],-0.318
same,glycan array binding signal (z-score),[28],0.916
same,glycan array binding signal (z-score),[29],-0.182
same,glycan array binding signal (z-score),[30],0.545
same,glycan array binding signal (z-score),[31],-0.195
same,glycan array binding signal (z-score),Man(a1-6)Man,-0.025
same,glycan array binding signal (z-score),Man(b1-4)GlcNAc,0.871
same,glycan array binding signal (z-score),MurNAc(b1-4)GlcNAc,-0.207
